Biological target: the molecule itself
Assay: single-molecule pulldown (SiMPull) with subunit counting by photobleaching steps; surface receptors labelled with BG-LD555 on HEK 293T cells, lysed in 1.2% IGEPAL, diluted in 0.1% IGEPAL, immobilised by biotinylated anti-HA antibody on a PEG-passivated coverslip, TIRF imaging; SNAP labelling efficiency ~80%; background two-step bleaching ~5-10%

B1: SNAP-mGluR5 (receptor, human, UniProt P41594 21-1212, looked up)
chain: QSSERRVVAHMPGDIIIGALFSVHHQPTVDKVHERKCGAVREQYGIQRVEAMLHTLERINSDPTLLPNITLGCEIRDSCWHSAVALEQSIEFIRDSLISSEEEEGLVRCVDGSSSSFRSKKPIVGVIGPGSSSVAIQVQNLLQLFNIPQIAYSATSMDLSDKTLFKYFMRVVPSDAQQARAMVDIVKRYNWTYVSAVHTEGNYGESGMEAFKDMSAKEGICIAHSYKIYSNAGEQSFDKLLKKLTSHLPKARVVACFCEGMTVRGLLMAMRRLGLAGEFLLLGSDGWADRYDVTDGYQREAVGGITIKLQSPDVKWFDDYYLKLRPETNHRNPWFQEFWQHRFQCRLEGFPQENSKYNKTCNSSLTLKTHHVQDSKMGFVINAIYSMAYGLHNMQMSLCPGYAGLCDAMKPIDGRKLLESLMKTNFTGVSGDTILFDENGDSPGRYEIMNFKEMGKDYFDYINVGSWDNGELKMDDDEVWSKKSNIIRSVCSEPCEKGQIKVIRKGEVSCCWTCTPCKENEYVFDEYTCKACQLGSWPTDDLTGCDLIPVQYLRWGDPEPIAAVVFACLGLLATLFVTVVFIIYRDTPVVKSSSRELCYIILAGICLGYLCTFCLIAKPKQIYCYLQRIGIGLSPAMSYSALVTKTNRIARILAGSKKKICTKKPRFMSACAQLVIAFILICIQLGIIVALFIMEPPDIMHDYPSIREVYLICNTTNLGVVTPLGYNGLLILSCTFYAFKTRNVPANFNEAKYIAFTMYTTCIIWLAFVPIYFGSNYKIITMCFSVSLSATVALGCMFVPKVYIILAKPERNVRSAFTTSTVVRMHVGDGKSSSAASRSSSLVNLWKRRGSSGETLRYKDRRLAQHKSEIECFTPKGSMGNGGRATMSSSNGKSVTWAQNEKSSRGQHLWQRLSIHINKKENPNQTAVIKPFPKSTESRGLGAGAGAGGSAGGVGATGGAGCAGAGPGGPESPDAGPKALYDVAEAEEHFPAPARPRSPSPISTLSHRAGSASRTDDDVPSLHSEPVARSSSSQGSLMEQISSVVTRFTANISELNSMMLSTAAPSPGVGAPLCSSYLIPKEIQLPTTMTTFAEIQPLPAIEVTGGAQPAAGAQAAGDAARESPAAGPEAAAAKPDLEELVALTPPSPFRDSVDSGSTTPNSPVSESALCIPSSPKYDTLIIRDYTQSSSSL
modifications: SNAP tag labelled with BG-LD555
notes: mGluR5; the previously reported full-length SNAP-tagged mGluR cDNA (Doumazane et al., 2011) from which the human mGluR5-TMD clone was made; source: HEK 293T, transfected, surface-labelled, in detergent lysate; not shown: HA, N-terminal, kept; SNAP, N-terminal, kept
percent of spots bleaching in two steps: 48.4%
stoichiometry N: 2
